Measurements from article PMC12040169 (PLOS Biology, 2025).
The list shows a part of the results.

What follows are compounds tested on T1, C. trachomatis L2/434/Bu expressing GFP (CTL2-GFP). Conditions: total inclusion area; 28.5 h, 10 µM; inhibitor.
T1 construct: L2/434/Bu GFP intracellular growth in HeLa cells
Set-up: species or system HeLa; C. trachomatis total inclusion area by high-content imaging, normalised to DMSO
Description: In this process, we also complemented the assay described above with an imaging-based readout (Fig 1B). After measurements of bulk GFP and resorufin fluorescence, cells were fixed, stained with the DNA dye Hoechst, and imaged at a high-content imaging platform to detect chlamydial inclusions (GFP) and host cell nuclei (Hoechst). The total area and number of inclusions in individual wells and the number of nuclei then served as additional proxies for chlamydial growth and host cell viability. […] MICs were calculated as described above.

Compound	% of control remaining
CC(C)(C)C(=O)NC(=S)Nc1ccc(Cc2ccncc2)cc1 [CBK269717]	86.7173
COCC(=O)N1CCc2sccc2C1c1ccc(NC(=O)c2ccc(F)cc2)cc1 (stereo not drawn) [CBK286435]	96.7914
COCCCOc1cncc(N2CCCC2)n1 [CBK115759]	99.5573
OC(Cn1nnc2ccccc21)Cn1c(-c2ccccc2)c(-c2ccccc2)c2ccc3ccccc3c21 (stereo not drawn) [CBK264054G]	66.7172
O=C(CSc1nc2sc3c(c2c(=O)[nH]1)CCCC3)NCCN1CCOCC1 [CBK264064]	100.365
O=C(Nc1ccc(Cl)cc1C(=O)NCCN1CCOCC1)c1ccc(Cl)cc1Cl [CBK265749]	139.396
Cc1nnc(Sc2nc3ccccc3nc2NC(C)C)s1 [CBK093731]	98.7822
CC(=O)Nc1ccc(S(=O)(=O)NNC(=O)c2cccc(Cl)c2)cc1 [CBK261694]	96.6075
CCOc1ccc(-c2noc(CCC(=O)NC)n2)cc1OC [CBK269226]	61.1212
FC(F)(F)c1ccc(N2CCNCC2)nc1SCc1ccccc1Cl [CBK003964A]	37.9398
O=C(O)/C=C/C(=O)NNC(=O)c1ccccc1Br [CBK261786]	98.0071
COc1ncc(-c2cnc(N)c(-c3ccc(C=O)cc3)n2)c(OC)n1 [CBK064110]	135.616
O=C(CC(CN1CCCCC1)C(=O)O)Nc1cccc(O)c1 (stereo not drawn) [CBK286788]	105.141
CCN(CC)C(=O)NC(C)c1cccc(S(=O)(=O)NC)c1 (stereo not drawn) [CBK305134]	37.2154
N=C(N)NCC(=O)N(CCCc1cc(C(F)(F)F)cc(C(F)(F)F)c1)c1ccc2c(c1)OCO2 [CBK000702T]	19.0437
CC(=O)c1c(C)oc(C)c1C(C)=O [CBK012535]	100.16
O=C(Nc1cc(Cl)nc(Cl)c1)N(Cc1ccc2ccccc2c1)CC1CCNCC1 [CBK049773]	26.6365
COc1ccccc1CN(Cc1cccnc1)C(=O)CCn1cnnn1 [CBK307106]	78.2039
O=C(CN1CCCCCC1)N/N=C/c1ccccc1Cl [CBK261589]	91.4658
C[C@@H](c1ccccc1)n1c(=O)[nH]c2ncc(-c3ccc(N(C)C)cc3)nc21 [CBK064352]	101.319
CCN1CCC2(C/C=C/CCOc3ccccc3C(=O)NCCCNC2=O)CC1 [CBK292060]	89.3843

Compound	% of control remaining
CCOC(=O)c1nc(C2CCN(c3cccc(F)c3C#N)CC2)n[nH]1 [CBK304711]	101.571
Cc1nn(-c2ccc3nnc(C)n3n2)c2c1C(c1ccccc1F)CC(=O)N2 (stereo not drawn) [CBK287898]	89.5798
CN(C)CC(=O)N1CCN(c2ccc(C(=O)c3ccccc3)cc2[N+](=O)[O-])CC1 [CBK296699]	94.4545
Cc1ccc(C(=O)CN2CCCC3(C2)NCCc2c3[nH]c3c(C)cccc23)cc1 (stereo not drawn) [CBK039546]	87.2176
Cc1cc(C)c(NC(=O)N(CCCO)Cc2ccncc2)c(Cl)c1 [CBK304406]	46.2387
CC(=O)c1ccc(-c2cn3ccnc3c(N3CCN(C)CC3)n2)s1 [CBK037957]	115.677
Cc1ccnn1CCC(=O)NC1(c2ccc(F)cc2)CCCC1 [CBK283600]	95.5014
Cc1ccc(Nc2nc(Cn3nc(C(=O)O)c4ccccc4c3=O)cs2)cc1 [CBK296989]	108.627
COc1ccccc1NC(=O)C1CCN(C(=O)OC(C)(C)C)CC1 [CBK296746]	102.658
CC(C)(C)c1ccc(C(=O)N2CCC(C(=O)O)CC2)cc1 [CBK286949]	84.0584
Cc1ccn2c(CN3CCCC(Cn4ccnc4C)C3)c(C)nc2c1 (stereo not drawn) [CBK281964]	58.8211
COc1ccc(CC(=O)Nc2cccc(-c3cn4ccc(C)cc4n3)c2)cc1OC [CBK269148]	123.564
Cc1cc(S(=O)(=O)N(C)CCC#N)c(C)cc1Cl [CBK043787]	92.5966
O=C(c1cscn1)N1CCN(CCc2ccccc2)CC1 [CBK200230]	98.5452
CSC(C)C(=O)N(C)C1CCN(c2ncnc3ccccc23)CC1 (stereo not drawn) [CBK305300]	61.0314
Cc1n[nH]c(C)c1C12CC3CC(CC(CC(=O)O)(C3)C1)C2 [CBK288241]	98.375
CCCCSc1nc(N)cc(N2CCC(C(=O)N3CCOCC3)CC2)n1 [CBK306619]	82.4374
CC(C)Nc1cncc(OC2CCOC2)n1 (stereo not drawn) [CBK115882]	121.743
Cc1cccc(-c2nnc(SCC3CC3)n2CC2CCCCC2)c1 [CBK085423]	96.495
CCOC(=O)c1c(N)n(-c2cccc(C(F)(F)F)c2)c2nc3ccccc3nc12 [CBK264977]	96.1461
CCCn1nnc(NCc2ccc(Cl)cc2)n1 [CBK288089]	88.9338

Compound	% of control remaining
COc1ccc(S(=O)(=O)N(Cc2c(F)cccc2F)C2CCN(C)CC2)cc1 [CBK161910T]	59.2364
CC(=O)N1CCc2cc(-c3cc4c(C)cccn4c3)ccc21 [CBK285225]	110.806
COc1cc(-c2cncc(NCc3ccncc3)n2)cc(OC)c1OC [CBK065263]	108.602
O=C(CCC(=O)Nc1ccc(I)cc1)N/N=C/c1ccc(Br)cc1 [CBK262010]	98.5658
Cn1cc(C2CCCCCN2C(=O)c2ccccc2F)cn1 (stereo not drawn) [CBK285119]	78.0241
COc1ccc2cc(COC(=O)c3ccc([S+](C)[O-])cc3)c(Cl)nc2c1 (stereo not drawn) [CBK298267]	92.1954
CC(NC(=O)Cc1ccc(F)cc1)c1nc2cccnc2n1C(C)C (stereo not drawn) [CBK283830]	97.5204
Cc1ccc(NC(=O)Cc2ccc(N(C)C)cc2)c(C)n1 [CBK200295]	119.248
CCCCNc1cc(N2CCOC(Cn3cc(C)cn3)C2)nc(N)n1 (stereo not drawn) [CBK305417]	2.719
CC(C)OC(=O)Cn1c(C2CCCNC2)cc2cccnc21 (stereo not drawn) [CBK285058]	81.7933
CCCCOC(=O)c1c(N)n(-c2ccc(C(=O)O)cc2)c2nc3ccccc3nc12 [CBK265046]	118.819
CC(C)(C)CC(C)(C)NC(=O)NCCc1cccs1 [CBK038697]	86.6225
CCn1cncc1C(=O)Nc1ccc(-n2ccnc2C(C)C)cc1 [CBK281379]	82.993
CCN1CC2(CCN(Cc3ncc[nH]3)CC2)c2ccccc21 [CBK131486]	136.914
Cn1c(SCC(=O)N2CCN(c3cccc(Cl)c3)CC2)nnc1-c1cccc([N+](=O)[O-])c1 [CBK266264]	111.308
CN(C)CCn1cnc2c1c(=O)[nH]c(=O)n2Cc1ccccc1 [CBK291235]	91.6707
O=C(Oc1ccc(F)cc1C(=O)/C=C/c1cccs1)c1ccc([N+](=O)[O-])cc1 [CBK264925]	89.3532
CCCC(=O)N1CCC[C@H]1Cn1nc(-c2ccc(F)cc2)ccc1=O [CBK284288]	81.6368
Cc1nc(C)c(CCC(=O)Nc2ccc(N3CCOCC3)cc2)c(=O)[nH]1 [CBK306059]	54.5391
Cc1cnn(C2CN(CC(=O)N3CCc4sccc4C3)C2)c1 [CBK305097]	101.648
CCn1c2c(c3cc(S(=O)(=O)c4ccc(C(F)(F)F)cc4)ccc31)CCNCC2 [CBK018453C]	0.6718

Compound	% of control remaining
CC1CCN(C(=S)NC2CC3CCC2C3)CC1 (stereo not drawn) [CBK085998]	97.0369
C=CCNC(=O)N1CC[C@H]2CC(=O)N(Cc3ccc(OC)cc3)CC[C@H]2C1 [CBK288790]	109.131
Cc1cc(O)n2nc(C)c(-c3ccc(F)cc3)c2n1 [CBK283642]	93.3132
COc1ccc2[nH]cc(CC3CCNCC3)c2c1 [CBK012779]	91.0649
COc1ccc(CNC(=O)c2ccccc2NS(=O)(=O)c2cc(Cl)ccc2Cl)cc1 [CBK113964]	98.247
COC(=O)CNC(=O)c1ccncc1Br [CBK057760]	62.9921
COc1cc(/C=N/Nc2nc(Nc3ccccc3)nc(Nc3ccccc3)n2)ccc1O [CBK262584]	81.9868
CCC(C)C(NC(=O)Cc1c[nH]c2ccccc12)C(=O)O (stereo not drawn) [CBK286720]	80.2724
O=C(C1=C(O)C(=O)N(CCCn2ccnc2)C1c1ccc(Br)cc1)c1ccc2c(c1)OCCO2 (stereo not drawn) [CBK266081]	0
c1nn(C2CCCCC2)cc1-c1cncn1CCCN1CCCCC1 [CBK281495]	65.7777
Cc1ccc2nc(O)c(C3=NN(C(=O)CCC(=O)O)C(c4ccco4)C3)c(-c3ccccc3)c2c1 (stereo not drawn) [CBK267544]	103.515
NC(=O)c1ccc(NC(=O)CCCc2nc(-c3ccccc3Cl)no2)cc1 [CBK268932]	114.473
COc1ccc(CNCc2ccc(Cl)cc2)cc1OC [CBK263315]	106.792
Cc1cccc(OC(C)C(=O)Nc2ccc(S(=O)(=O)N3CCOCC3)cc2)c1 (stereo not drawn) [CBK269609]	68.336
Cc1onc(-c2ccccc2)c1CNC(=O)c1cscn1 [CBK144089]	96.708
O=C(O)c1ccc(NS(=O)(=O)c2cccs2)cc1O [CBK092145]	120.279
CCOc1ccccc1N(CC(=O)Nc1ccc(C)cc1C)S(C)(=O)=O [CBK263799]	104.986
O=C1CC(c2ccccc2)CC(NCc2ccccc2)=C1C(=S)Nc1ccccc1 (stereo not drawn) [CBK264491]	89.0444
